From PMC12136788 come the findings set out here.

Sequences and labels used below:
T1: UNK ZnF1-3 (human, UniProt Q9C0B0 31-174)
T1 sequence: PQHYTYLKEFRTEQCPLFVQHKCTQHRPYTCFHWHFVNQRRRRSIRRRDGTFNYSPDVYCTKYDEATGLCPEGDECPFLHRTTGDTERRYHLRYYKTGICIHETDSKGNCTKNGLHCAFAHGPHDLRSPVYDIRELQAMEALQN

B1: chr12:48362563:48362564:+_ENSG00000134291_ENST00000256686|hu_hu|FALSE|FALSE (ssRNA)
RNA: GGGAGUUCUACAGUCCGACGAUCGAUGAAGGGUGAAUCAAGCCCCACAUAGACUCUUGGUAAAAACAAUUCUAACUUUCUAAAAAAAAAAAAAGCCAACACACUUUUUUCUUUCUUUUCAAAAAGCUCCCAGGCCUUUGGGAACAACAGAGGAUUGAGCAUCA
B2: chr1:95392461:95392462:-_ENSG00000117519_ENST00000538964|hu_hu|FALSE|FALSE (ssRNA)
RNA: GGGAGUUCUACAGUCCGACGAUCUUCGGCCGAGAGCCCAUAGGAAGGGCCCUUGUUGAAGUGGGUCAUGGUGGUUCGGGCGGCGGGAAGAGACAGCGCUGGGGUCCGGGGUCUCUCGCACUUCGCUUCCCCGCUCCUGGGUGCCAACAGAGGAUUGAGCAUCA
B3: chr3:72423869:72423870:-_ENSG00000163602_ENST00000477973|hu_hu|motif|central (ssRNA)
RNA: GGGAGUUCUACAGUCCGACGAUCGCAGAAUUCAUAAAUAGACAUUUCUAUUUAAAGCAGGAAAAUGAUAAAGUGGCUUCGGAUAACAUAGUCGUGCACAUGCCAGUAACAGGAAUAUAUUAACAUCUUUUAUUUGCUAGACAACAACAGAGGAUUGAGCAUCA
B4: chr4:13698614:13698615:+_ENSMUSG00000006586_ENSMUST00000098257|mus_hu|motif|central (ssRNA)
RNA: GGGAGUUCUACAGUCCGACGAUCACUCAGUGCUCUCCAAGUGUUUCUUUUGACAGAUAUCAUUCUCCACCAAUCGCUCUGCGGAUUUCCUCUCUCCUUUUCUGACUGGGACAGAGAUUAUGUUCACCAGCCCAGAGAUCAAUCCAACAGAGGAUUGAGCAUCA
B5: chr3:128516864:128516865:+_ENSG00000075785_ENST00000265062|hu_hu|FALSE|FALSE (ssRNA)
RNA: GGGAGUUCUACAGUCCGACGAUCCUGCAUUGUGACUAGCCUGUCAUCCACCAUCACCUCCUUGGUCAGAAAGUCAGCUCCUAUUGUGGCUUUGUACUGAUUGCUGAAUUUCUUAUUCACAUACUGGUUCAUGAGUGAUGUCUUCAACAGAGGAUUGAGCAUCA
B6: chr8:93522421:93522422:+_ENSMUSG00000056608_ENSMUST00000048665|mus_mus|FALSE|FALSE (ssRNA)
RNA: GGGAGUUCUACAGUCCGACGAUCAGAUUGGAUCAUUGCUUGCAGAUGAAAAUCAGAGGCAGAUGGAUUGUAUGUAUCUCUAAAUUCUCCAAGUAUUUUCUCCUCAGCACCUUUGAUAAGAUACGGAUGAUUGCAGCAUUUCCUCAACAGAGGAUUGAGCAUCA
B7: chr2:47387792:47387793:-_ENSG00000143933_ENST00000272298|hu_hu|hu_hu_hu_mus_True|8_18 (ssRNA)
RNA: GGGAGUUCUACAGUCCGACGAUCUAAGGACAAUGACAGUAAGAUAAGGGAAGAAAACAUGGAGGAAUGAAGUCCUAAUUACUAUACAUGCAUAUUUUUUGACAGUAGGGGGGGGGACUUUUACAGAUAAGUUACAAAAACAAACAACAGAGGAUUGAGCAUCA
B8: 81584201_81584321_406_CDS_ENSMUSG00000071064_ENSMUST00000098614|mouse|control|control (ssRNA)
RNA: GGGAGUUCUACAGUCCGACGAUCGCCCAGGGAGGUGUCGGGGGAUGUGGACUGCUCUUGGAUCCGGUCCUCCAGGGACAGCUUAUAGUUCUCUUGGACUUCCCCAUAGGACGCUUCUGACGGAGUCUCAGAGGAGUUUCCGUACAACAGAGGAUUGAGCAUCA
B9: 74035966_74036999_1806_CDS_ENSG00000167881_ENST00000307877|human|control|control (ssRNA)
RNA: GGGAGUUCUACAGUCCGACGAUCGACAAGGGAAGGGUCCAGGCAGAAUGUCUCAAACCGUUCAACCAGAGGCUUAUUGUCCUUGACUUGGGAGGAGGAGGUCUCUGUUUGAUGAGCGUCGUUUGCAUCAAGGAUGGCUGCGGCCAACAGAGGAUUGAGCAUCA
B10: chr20:46266449:46266450:+_ENSG00000124151_ENST00000372004|hu_hu|motif|central (ssRNA)
RNA: GGGAGUUCUACAGUCCGACGAUCUUGCUUAGUCCCCAGAUGACUACCAUUUGAGGAUAUGGAAUUAUUGUAAAAGUCAGAACGGGUCAGAUCACCAAGAAUAGCAUCUAGAUUAUCCAAGUCUCCAGAUCCCUCUUCACUUGUCAACAGAGGAUUGAGCAUCA
B11: chr13:100193533:100193534:-_ENSMUSG00000052727_ENSMUST00000064762|mus_mus|FALSE|FALSE (ssRNA)
RNA: GGGAGUUCUACAGUCCGACGAUCUUAAACAUUUGGAAAAUGUGAUUCACAGCAUUAAGUAGACUGCAUGGGUUCUCAGUGAGGAAACCCCUGGAGAAAUAUUGUUUAAACCCUCAGAGUAAAAGAGCAGUGCGAAACAUACGCCAACAGAGGAUUGAGCAUCA
B12: 102975785_102977221_268_CDS_ENSMUSG00000005687_ENSMUST00000005830|mouse|control|control (ssRNA)
RNA: GGGAGUUCUACAGUCCGACGAUCAAAUUCAUUUCUCAUUAUGUCUGUUUCAAAGGCAGAAUAAUCCGGGGCCGUCAGGUAGCUCAGGUAGUUCUUGGUAGGUCGGUAUCUGCGCGUCUCCUCCUCCACCAGGGCCGCCGCCGCCAACAGAGGAUUGAGCAUCA
B13: chr11:23194044:23194045:+_ENSMUSG00000020290_ENSMUST00000020538|mus_mus|FALSE|FALSE (ssRNA)
RNA: GGGAGUUCUACAGUCCGACGAUCUUGAAUAAACAUUUGGUUGUUAACUGGAUUUCCAGGAUUUAGUGGUGUACUUAUUUUUCCUUCUUCAACCAAAUUAAACAUAUAUGCAAGAAUUGAUGCAUGCAUUGUUAGACCUGCAGUCAACAGAGGAUUGAGCAUCA
B14: chr2:5814250:5814251:-_ENSMUSG00000025816_ENSMUST00000102981|mus_hu|mus_mus_mus_hu_True|1_28 (ssRNA)
RNA: GGGAGUUCUACAGUCCGACGAUCUUCCUUUCCGGUUUCUGAAUUUCUGGUAGAACUGCACAGAAUGGUUUGAUAACUUCUAAAAAUUUGAUGCCCAUGGCUGCUGCUCAGCACACCCAGGGGGAAACCGCGGCCUCGCAGCUGCAACAGAGGAUUGAGCAUCA

The other results are listed elsewhere or left out.

For this test, the target named is T1, UNK ZnF1-3. The test is described as follows: nsRBNS (natural sequence RNA bind-n-seq); RBNS binding buffer (assumed for nsRBNS): 25 mM Tris pH 7.5, 150 mM KCl, 3 mM MgCl2, 0.01% Triton X-100, 500 ug/ml BSA, 20 U/ml SUPERase-In, 4 C; UNK is unkempt and MSI1 is Musashi-1; names of the RNAs are library labels; protein concentration not given here; high values mean tight binding.
As to B1, the binding signal was determined as 1.97 enrichment R.
The molecule B2 registered a binding signal of 0.898 enrichment R.
B3: the binding signal worked out at 1.06 enrichment R.
B4 came in with a binding signal of 0.646 enrichment R.
B5: the binding signal was determined as 0.543 enrichment R.
Take B6: the binding signal turned out to be 1.26 enrichment R.
On to B7, for which the binding signal worked out at 2.72 enrichment R.
B8 yielded a binding signal of 0.631 enrichment R.
The molecule B9 had a binding signal of 0.897 enrichment R.
On to B10, for which the binding signal is 0.959 enrichment R.
For B11 the value was 1.13 enrichment R.
The molecule B12 yielded a binding signal of 0.7 enrichment R.
B13: the binding signal came to 0.601 enrichment R.
The value for B14 was 1.03 enrichment R.
